Experimental data: PubChem BioAssay AID463173 (ICCB-Longwood Screening Facility, Harvard Medical School, 2010)
The campaign covered roughly 52,000 compounds. About 1,700 (3.3%) were called active. No stated cut-off is given here; in the data, active means survival mostly below about 52% (no sharp cut-off); inactive means mostly above about 56%. The list shows a part of the results.

The compounds below were run on Wild type (assay: growth inhibition of S. aureus wild type versus tarO mutant, primary screen, teichoic acid synthesis inhibitors, RN4220, OD600 (AID 463173)). Conditions: S. aureus RN4220 wild type/DeltatarO growth, OD600, 18 h, stronger effect = lower value, screened at 18.75 µg/mL (by protocol).
`NC(=O)CSc1nnc(CNc2ccc(Cl)cc2)n1Cc1ccccc1` was tested, and the survival was inactive: 125%.
With `COCCCNC(=O)c1ccc(CSc2nc3cccnc3n2Cc2ccc(OC)cc2)cc1` the survival was inactive: 94%.
`Cc1cc(C)c(S(=O)(=O)Nc2ccc3oc4c(c3c2)CCCC4)cc1C` was tested, and the survival was inactive: 72%.
`COc1nc(C)c(/C=C/C(=O)N(C(=O)NC2CCCCC2)C2CCCCC2)c(OC)n1` was tested, and the survival was inactive: 101%.
With `COc1ccc(C2C=C(c3ccccc3)Nc3nc(NS(=O)(=O)c4ccccc4)nn32)cc1` (stereo not given) the survival was inactive: 29%.
For `Cc1nc2c(c(C)c1CCC(=O)N1CCN(c3ccccc3)CC1)c(=O)n(C)c(=O)n2C`, the survival was inactive: 118%.
In the case of `COc1ccc(CCNC(=O)C2CC(=O)N(CCc3ccccc3)C2)cc1OC` (stereo not given), the survival is reported as inactive: 121%.
With `O=C(Nc1cccc(Cl)c1Cl)c1cc(S(=O)(=O)N2CCCCC2)ccc1F` the survival was inactive: 64%.
`COc1cccc(NC(=O)c2c(-c3ccc(C)cc3)nnc3ccccc23)c1` was tested, and the survival was inactive: 74%.
`Cc1ccc(C)c(Cn2c(=O)n(-c3ccc(Cl)cc3)c(=O)c3c4c(sc32)CCC4)c1` was tested, and the survival was inactive: 135%.
`COc1ccc(OC)c(S(=O)(=O)NCCc2sc(-c3cccnc3)nc2C)c1` was tested, and the survival was inactive: 72%.
In the case of `CC(=O)OC1=CN(Cc2ccccc2)S(=O)(=O)c2ccccc21`, the survival is reported as inactive: 77%.
With `CCCCN1CC(c2nc3ccccc3n2CCCCOc2ccccc2C)CC1=O` (stereo not given) the survival was active: 15%.
In the case of `Cc1ccc(-c2onc(C)c2C)cc1S(=O)(=O)NCc1cccs1`, the survival is reported as inactive: 119%.
For `COc1ccccc1N1CCN(c2nc3ccc(C(=O)c4ccccc4)cc3n3c(C)nnc23)CC1`, the survival was inactive: 64%.
For `CCc1nn(CC(=O)Nc2ccc(C)c(F)c2)c(=O)c2cc3cc(C)ccc3n12`, the survival was inactive: 109%.
In the case of `COc1ccc(OC)c(CNC(=O)C2CCN(S(=O)(=O)N3CCCCC3)CC2)c1`, the survival is reported as inactive: 63%.
`CCCN(Cc1cccs1)C(=O)Nc1cc(C)ccc1OC` was tested, and the survival was inactive: 83%.
`O=C(c1ccc2c(c1)N(Cc1ccc(Cl)cc1)C(=O)c1ccccc1S2(=O)=O)N1CCCCCC1` was tested, and the survival was inactive: 96%.
In the case of `Cc1cccc(C)c1Nc1c(-c2ccccc2Cl)nc2cnccn12`, the survival is reported as inactive: 123%.
`O=C(COc1ccc(F)cc1)Nc1ccc2nc(SCC(=O)N3CCCC3)sc2c1` was tested, and the survival was inactive: 105%.
For `CCOc1ccc(NC(=O)C2CCN(C(=O)Cc3ccccc3)CC2)cc1`, the survival was inactive: 101%.
In the case of `COc1ccccc1N1CCN(C2C(=O)c3ccccc3N2C(C)=O)CC1` (stereo not given), the survival is reported as inactive: 66%.
For `Cc1ccc(-c2cn3c(n2)sc2cc(C(=O)NCCC4=CCCCC4)ccc23)c(C)c1`, the survival was inactive: 100%.
With `CCOc1ccc(S(=O)(=O)NCC(c2ccc(N(C)C)cc2)N2CCCC2)cc1` (stereo not given) the survival was inactive: 94%.
With `CCOc1ccc(-c2nnc(SCC(=O)Nc3ccccc3C(F)(F)F)o2)cc1` the survival was inactive: 53%.
`Cc1ccc(N2C(=O)C(CC(=O)Nc3ccc(F)cc3)N(CCC3=CCCCC3)C2=O)cc1` (stereo not given) was tested, and the survival was inactive: 71%.
`COCCCNC(=O)c1cn(CC(C)C)c(=O)c2c1c1ccccc1n2C` was tested, and the survival was inactive: 84%.
For `CCOc1ccc(OCC)c(NC(=O)c2nnn(Cc3cc(Br)ccc3OC)c2N)c1`, the survival was inactive: 72%.
With `CC(=O)c1ccc(N2CCN(C(=O)C3CCN(S(=O)(=O)c4ccc(Br)s4)CC3)CC2)cc1` the survival was inactive: 128%.
With `COCCn1c(CNC(=O)c2cccc(N(C)C)c2)nc2cccnc21` the survival was inactive: 65%.
With `COc1cc(OC)c(NS(=O)(=O)c2cc3c(cc2C)NC(=O)CO3)cc1Cl` the survival was inactive: 86%.
In the case of `Cc1ccc(NC(=O)c2nc(S(C)(=O)=O)ncc2N(Cc2ccco2)Cc2ccccc2F)c(C)c1`, the survival is reported as inactive: 84%.
With `CCC(C(=O)NC1CCCC1)N(C(=O)c1snc(C(N)=O)c1N)c1ccccc1` (stereo not given) the survival was inactive: 98%.
For `Cc1nc2scc(C)n2c(=O)c1S(=O)(=O)Nc1cccc(O)c1`, the survival was inactive: 84%.
For `NCCC(=O)N1c2ccccc2Sc2ccc(Cl)cc21`, the survival was inactive: 104%.
`CCN(Cc1ccccc1)C(=O)CCS(=O)(=O)c1cc2c(cc1Cl)NC(=O)CO2` was tested, and the survival was inactive: 85%.
With `Cc1ccc(C)c(NC(=O)Nc2nnc(N(CC(C)C)CC(C)C)s2)c1` the survival was inactive: 100%.
`CCN1C2OC(C3OC4C(O3)N(CC)S(=O)(=O)N4CC)OC2N(CC)S1(=O)=O` (stereo not given) was tested, and the survival was inactive: 96%.
For `CCOC(=O)c1c(C)[nH]c(C)c1S(=O)(=O)N1CCC(C(=O)N2CCN(c3cccc(C)c3)C(C)C2)CC1` (stereo not given), the survival was inactive: 126%.
In the case of `CCOC(=O)c1ccc(CN(Cc2ccc(F)cc2)S(=O)(=O)c2ccc(F)cc2)cc1`, the survival is reported as inactive: 68%.
For `O=C(Nc1ccc(C(F)(F)F)cc1)c1cc(S(=O)(=O)NC2CCCCCC2)ccc1F`, the survival was inactive: 19%.
With `CCCOc1ccc(C2c3c(oc4ccccc4c3=O)C(=O)N2c2ccc(C)cn2)cc1OCC` (stereo not given) the survival was inactive: 71%.
For `CCOc1cccc2sc(NC(=O)c3ccc(S(=O)(=O)N4CCCc5ccccc54)cc3)nc12`, the survival was inactive: 88%.
In the case of `Cc1ccccc1S(=O)Cc1ccc(C(=O)NC2CCCCCC2)o1` (stereo not given), the survival is reported as inactive: 73%.
`Cc1ccc(CCNC(=O)c2ccc3c(=O)n(-c4ccc(C)cc4)c(=O)[nH]c3c2)cc1` was tested, and the survival was inactive: 79%.
With `O=C(CNS(=O)(=O)c1cccs1)N1CCN(c2ccccc2Cl)CC1` the survival was inactive: 60%.
For `COc1ccc2oc(=O)c(-c3nc(-c4cc(OC)c(OC)c(OC)c4)no3)cc2c1`, the survival was inactive: 97%.
In the case of `Cc1ccc2c(CNCc3cccc(Cl)c3)c(C(=O)O)n(Cc3ccc(F)cc3Cl)c2c1`, the survival is reported as inactive: 67%.
With `Cc1cc2oc(C(=O)Nc3sc4c(c3C(=O)NCc3ccco3)CCC4)cc(=O)c2cc1C` the survival was inactive: 79%.
`Cc1ccc(C(=O)Nc2ccc3nc(SCC(=O)N4CCc5ccccc54)sc3c2)cc1` was tested, and the survival was inactive: 90%.
In the case of `O=C(NC1CCCCCC1)c1ccc(Cl)c(S(=O)(=O)N2CCOCC2)c1`, the survival is reported as inactive: 95%.
For `O=C(Cn1cc(SCc2cccc(F)c2)c2ccccc21)N1CCCC1`, the survival was inactive: 79%.
For `COc1ccc(N2CCN(C(=O)c3cnc(N4CCCC4)nc3C)CC2)cc1`, the survival was inactive: 70%.
For `CSc1ccc(CNC(=O)CCn2ccc3cc(S(=O)(=O)N4CCC(C)CC4)ccc32)cc1`, the survival was inactive: 78%.
